Data as given in the supplement of paper PMC8728848.
Some of the results follow.

Assays:
Experiment in all cases: glycan array binding signal (z-score within array); higher = stronger binding
Details in all cases: glycan notation: IUPAC condensed, linker removed
[1] = target: Fuc(a1-2)Gal(b1-4)GlcNAc(b1-3)Gal(b1-4)GlcNAc(b1-2)Man(a1-3)[Fuc(a1-2)Gal(b1-4)GlcNAc(b1-3)Gal(b1-4)GlcNAc(b1-2)Man(a1-6)]Man(b1-4)GlcNAc(b1-4)GlcNAc
Summary of the method: (§1)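 Glycan array data came from 3228 arrays in the Consortium for Functional Glycomics database, and only arrays with an available protein sequence were kept. Glycan names were put into IUPAC-condensed notation, and columns mapping to the same glycan were averaged. The binding signal is a within-array Z-score, averaged across arrays of one protein sequence run at different concentrations or buffers and across linkers. A negative Z-score can be read as non-binding.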

[2] = target: Fuc(a1-2)Gal(b1-4)GlcNAc(b1-3)Gal(b1-4)GlcNAc(b1-3)Gal(b1-4)GlcNAc
Summary of the method: as §1

[3] = target: Fuc(a1-2)Gal(b1-4)GlcNAc(b1-3)GalNAc
Summary of the method: as §1

[4] = target: Fuc(a1-2)Gal(b1-4)GlcNAc(b1-3)[Fuc(a1-2)Gal(b1-4)GlcNAc(b1-6)]GalNAc
Summary of the method: as §1

[5] = target: Fuc(a1-2)Gal(b1-4)GlcNAc(b1-3)[Fuc(a1-3)[Gal(b1-4)]GlcNAc(b1-6)]Gal(b1-4)Glc
Summary of the method: as §1

[6] = target: Fuc(a1-2)Gal(b1-4)GlcNAc(b1-6)GalNAc
Summary of the method: as §1

[7] = target: Fuc(a1-2)Gal(b1-4)GlcNAc6S
Summary of the method: as §1

[8] = target: Fuc(a1-2)Gal(b1-4)[Fuc(a1-3)]GlcNAc
Summary of the method: as §1

[9] = target: Fuc(a1-2)Gal(b1-4)[Fuc(a1-3)]GlcNAc(b1-2)Man(a1-3)[Fuc(a1-2)Gal(b1-4)[Fuc(a1-3)]GlcNAc(b1-2)Man(a1-6)]Man(b1-4)GlcNAc(b1-4)[Fuc(a1-6)]GlcNAc
Summary of the method: as §1

[10] = target: Fuc(a1-2)Gal(b1-4)[Fuc(a1-3)]GlcNAc(b1-2)[Fuc(a1-2)Gal(b1-4)[Fuc(a1-3)]GlcNAc(b1-4)]Man(a1-3)[Fuc(a1-2)Gal(b1-4)[Fuc(a1-3)]GlcNAc(b1-2)Man(a1-6)]Man(b1-4)GlcNAc(b1-4)GlcNAc
Summary of the method: as §1

[11] = target: Fuc(a1-2)Gal(b1-4)[Fuc(a1-3)]GlcNAc(b1-3)Gal(b1-4)[Fuc(a1-3)]GlcNAc
Summary of the method: as §1

[12] = target: Fuc(a1-2)Gal(b1-4)[Fuc(a1-3)]GlcNAc(b1-3)Gal(b1-4)[Fuc(a1-3)]GlcNAc(b1-3)Gal(b1-4)[Fuc(a1-3)]GlcNAc
Summary of the method: as §1

[13] = target: Fuc(a1-2)Gal(b1-4)[Fuc(a1-3)]GlcNAc(b1-3)GalNAc
Summary of the method: as §1

[14] = target: Fuc(a1-2)Gal(b1-4)[Fuc(a1-3)]GlcNAc(b1-3)[Neu5Ac(a2-6)Gal(b1-4)GlcNAc(b1-6)]Gal(b1-4)Glc
Summary of the method: as §1

[15] = target: Fuc(a1-2)Gal3S(b1-4)GlcNAc
Summary of the method: as §1

[16] = target: Fuc(a1-2)Gal6S(b1-3)GlcNAc
Summary of the method: as §1

[17] = target: Fuc(a1-2)Gal6S(b1-3)GlcNAc6S
Summary of the method: as §1

Fuc(a1-2)Gal6S(b1-4)Glc = target: Fuc(a1-2)Gal6S(b1-4)Glc
Summary of the method: as §1

[18] = target: Fuc(a1-2)Gal6S(b1-4)Glc6S
Summary of the method: as §1

Fuc(a1-2)[Gal(a1-3)]Gal = target: Fuc(a1-2)[Gal(a1-3)]Gal
Summary of the method: as §1

[19] = target: Fuc(a1-2)[Gal(a1-3)]Gal(b1-3)GalNAc
Summary of the method: as §1

[20] = target: Fuc(a1-2)[Gal(a1-3)]Gal(b1-3)GalNAc(b1-3)Gal(a1-4)Gal(b1-4)Glc
Summary of the method: as §1

[21] = target: Fuc(a1-2)[Gal(a1-3)]Gal(b1-3)GlcNAc
Summary of the method: as §1

[22] = target: Fuc(a1-2)[Gal(a1-3)]Gal(b1-3)GlcNAc(b1-2)Man(a1-3)[Fuc(a1-2)[Gal(a1-3)]Gal(b1-3)GlcNAc(b1-2)Man(a1-6)]Man(b1-4)GlcNAc(b1-4)GlcNAc
Summary of the method: as §1

[23] = target: Fuc(a1-2)[Gal(a1-3)]Gal(b1-3)GlcNAc(b1-2)Man(a1-3)[Fuc(a1-2)[Gal(a1-3)]Gal(b1-3)GlcNAc(b1-2)Man(a1-6)]Man(b1-4)GlcNAc(b1-4)[Fuc(a1-6)]GlcNAc
Summary of the method: as §1

[24] = target: Fuc(a1-2)[Gal(a1-3)]Gal(b1-3)GlcNAc(b1-3)GalNAc
Summary of the method: as §1

[25] = target: Fuc(a1-2)[Gal(a1-3)]Gal(b1-3)GlcNAc(b1-6)GalNAc
Summary of the method: as §1

[26] = target: Fuc(a1-2)[Gal(a1-3)]Gal(b1-4)Glc
Summary of the method: as §1

[27] = target: Fuc(a1-2)[Gal(a1-3)]Gal(b1-4)GlcNAc
Summary of the method: as §1

[28] = target: Fuc(a1-2)[Gal(a1-3)]Gal(b1-4)GlcNAc(b1-2)Man
Summary of the method: as §1

[29] = target: Fuc(a1-2)[Gal(a1-3)]Gal(b1-4)GlcNAc(b1-2)Man(a1-3)[Fuc(a1-2)[Gal(a1-3)]Gal(b1-4)GlcNAc(b1-2)Man(a1-6)]Man(b1-4)GlcNAc(b1-4)GlcNAc
Summary of the method: as §1

[30] = target: Fuc(a1-2)[Gal(a1-3)]Gal(b1-4)GlcNAc(b1-2)Man(a1-3)[Fuc(a1-2)[Gal(a1-3)]Gal(b1-4)GlcNAc(b1-2)Man(a1-6)]Man(b1-4)GlcNAc(b1-4)[Fuc(a1-6)]GlcNAc
Summary of the method: as §1

[31] = target: Fuc(a1-2)[Gal(a1-3)]Gal(b1-4)GlcNAc(b1-3)GalNAc
Summary of the method: as §1

[32] = target: Fuc(a1-2)[Gal(a1-3)]Gal(b1-4)GlcNAc(b1-3)[Fuc(a1-2)[Gal(a1-3)]Gal(b1-4)GlcNAc(b1-6)]GalNAc
Summary of the method: as §1

[33] = target: Fuc(a1-2)[Gal(a1-3)]Gal(b1-4)GlcNAc(b1-6)GalNAc
Summary of the method: as §1

[34] = target: Fuc(a1-2)[Gal(a1-3)]Gal(b1-4)[Fuc(a1-3)]Glc
Summary of the method: as §1

[35] = target: Fuc(a1-2)[Gal(a1-3)]Gal(b1-4)[Fuc(a1-3)]GlcNAc
Summary of the method: as §1

B1: DC-Sign (Homo sapiens), Q9NNX6 (protein)
chain: MSDSKEPRLQQLGLLEEEQLRGLGFRQTRGYKSLAGCLGHGPLVLQLLSFTLLAGLLVQVSKVPSSISQEQSRQDAIYQNLTQLKAAVGELSEKSKLQEIYQELTQLKAAVGELPEKSKLQEIYQELTRLKAAVGELPEKSKLQEIYQELTWLKAAVGELPEKSKMQEIYQELTRLKAAVGELPEKSKQQEIYQELTRLKAAVGELPEKSKQQEIYQELTRLKAAVGELPEKSKQQEIYQELTQLKAAVERLCHPCPWEWTFFQGNCYFMSNSQRNWHDSITACKEVGAQLVVIKSAEEQNFLQLQSSRSNRFTWMGLSDLNQEGTWQWVDGSPLLPSFKQYWNRGEPNNVGEEDCAEFSGNGWNDDKCNLAKFWICKKSAASCSRDEEQFLSPAPATPNPPPA
glycan array binding signal (z-score) [1]: 1.11 | glycan array binding signal (z-score) [2]: -0.142 | glycan array binding signal (z-score) [3]: -0.15 | glycan array binding signal (z-score) [4]: -0.181 | glycan array binding signal (z-score) [5]: -0.077 | glycan array binding signal (z-score) [6]: -0.16 | glycan array binding signal (z-score) [7]: -0.179 | glycan array binding signal (z-score) [8]: 0.911 | glycan array binding signal (z-score) [9]: 9.49 | glycan array binding signal (z-score) [10]: -0.174 | glycan array binding signal (z-score) [11]: 12.6 | glycan array binding signal (z-score) [12]: 6.53 | glycan array binding signal (z-score) [13]: -0.126 | glycan array binding signal (z-score) [14]: -0.045 | glycan array binding signal (z-score) [15]: -0.055 | glycan array binding signal (z-score) [16]: -0.179 | glycan array binding signal (z-score) [17]: -0.139 | glycan array binding signal (z-score) (Fuc(a1-2)Gal6S(b1-4)Glc): -0.089 | glycan array binding signal (z-score) [18]: -0.161 | glycan array binding signal (z-score) (Fuc(a1-2)[Gal(a1-3)]Gal): 0.684 | glycan array binding signal (z-score) [19]: -0.163 | glycan array binding signal (z-score) [20]: -0.097 | glycan array binding signal (z-score) [21]: -0.126 | glycan array binding signal (z-score) [22]: -0.155 | glycan array binding signal (z-score) [23]: 0.153 | glycan array binding signal (z-score) [24]: -0.189 | glycan array binding signal (z-score) [25]: -0.194 | glycan array binding signal (z-score) [26]: -0.125 | glycan array binding signal (z-score) [27]: -0.192 | glycan array binding signal (z-score) [28]: -0.192 | glycan array binding signal (z-score) [29]: -0.158 | glycan array binding signal (z-score) [30]: -0.034 | glycan array binding signal (z-score) [31]: -0.195 | glycan array binding signal (z-score) [32]: -0.109 | glycan array binding signal (z-score) [33]: -0.15 | glycan array binding signal (z-score) [34]: -0.108 | glycan array binding signal (z-score) [35]: -0.13
